Assay results: publication PMC4336329 (PLoS ONE, 2015)
Screen size: about 310,000 compounds; about 14,000 (4.5%) showed an effect of 50% or more. The effect is printed as a negative number. This is one part of the list.

What follows are compounds tested against human ether-à-go-go-related gene (hERG) potassium channel (human, UniProt Q12809) (assay: primary screen, population patch clamp on CHO cells stably expressing hERG).
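Further: peak tail current of the secondary pulse compared with the same well before compound.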

human ether-à-go-go-related gene (hERG) potassium channel, sequence (Q12809 whole entry, looked up): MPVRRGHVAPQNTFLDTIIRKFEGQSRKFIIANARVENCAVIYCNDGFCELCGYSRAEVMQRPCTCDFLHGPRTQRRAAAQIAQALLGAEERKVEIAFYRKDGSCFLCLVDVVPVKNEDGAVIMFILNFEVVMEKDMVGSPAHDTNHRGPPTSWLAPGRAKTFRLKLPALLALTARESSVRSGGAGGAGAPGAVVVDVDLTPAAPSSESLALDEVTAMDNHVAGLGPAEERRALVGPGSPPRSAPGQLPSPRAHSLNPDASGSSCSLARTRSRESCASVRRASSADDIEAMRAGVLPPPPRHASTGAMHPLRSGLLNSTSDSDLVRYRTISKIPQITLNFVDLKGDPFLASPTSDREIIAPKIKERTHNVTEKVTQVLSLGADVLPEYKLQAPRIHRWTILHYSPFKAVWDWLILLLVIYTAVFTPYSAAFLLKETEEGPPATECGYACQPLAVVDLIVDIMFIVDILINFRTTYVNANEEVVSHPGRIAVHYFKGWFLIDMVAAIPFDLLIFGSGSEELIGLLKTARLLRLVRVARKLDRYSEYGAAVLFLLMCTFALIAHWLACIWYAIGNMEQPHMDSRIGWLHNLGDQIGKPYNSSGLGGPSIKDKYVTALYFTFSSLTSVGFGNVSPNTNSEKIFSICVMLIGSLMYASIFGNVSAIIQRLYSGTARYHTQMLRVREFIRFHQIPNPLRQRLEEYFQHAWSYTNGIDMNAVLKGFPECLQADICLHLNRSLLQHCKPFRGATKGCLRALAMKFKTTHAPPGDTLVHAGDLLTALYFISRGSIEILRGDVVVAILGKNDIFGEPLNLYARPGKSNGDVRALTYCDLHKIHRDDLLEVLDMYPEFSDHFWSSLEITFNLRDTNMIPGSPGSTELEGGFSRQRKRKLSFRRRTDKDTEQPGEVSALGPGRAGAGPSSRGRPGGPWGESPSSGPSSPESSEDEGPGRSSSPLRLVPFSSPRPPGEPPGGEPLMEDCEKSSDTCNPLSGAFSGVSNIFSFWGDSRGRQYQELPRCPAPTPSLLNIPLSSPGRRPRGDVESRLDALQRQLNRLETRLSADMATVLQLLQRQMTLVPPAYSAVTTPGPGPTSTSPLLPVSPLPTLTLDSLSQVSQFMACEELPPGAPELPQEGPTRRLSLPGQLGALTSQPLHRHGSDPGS

| SMILES | hERG current change (%, negative = inhibition) at 10uM [%] |
| --- | --- |
| Cc1c(C(=O)N2CCCCC2)c(S(=O)(=O)NCc2ccc(N(C)C)cc2)c(C)n1C | 14 |
| O=[N+]([O-])c1cccc(C(=Nc2ccc(Cl)cc2)NO)c1 | -11.5 |
| CCOC(=O)C1(Cc2ccccc2)CCCN(C(=O)C=C(C)C)C1 (stereo not shown) | 13.2 |
| COc1ccc([C@@H]2[C@@H]3C(=O)N(C(C)(C)C)C(=O)[C@@H]3[C@]3(C)C(=O)N(c4ccccc4)C(=O)N23)cc1 | -19.4 |
| Cc1nnsc1C(=O)Nc1ccc(S(=O)(=O)N2CCC(C)CC2)cc1 | 23.7 |
| Cc1noc(NC(=O)c2cccc(C(F)(F)F)c2)c1Cl | 3.3 |
| CC(=O)OCC1OC(n2cc(F)c(=O)[nH]c2=O)C(OC(C)=O)C1OC(C)=O (stereo not shown) | 1.38 |
| CC(C)C[C@H](NC(=O)NCc1ccc(F)cc1)C(=O)O | -0.885 |
| COc1cc(C2C(C(=O)c3ccc(C)o3)=C(O)C(=O)N2CCCn2ccnc2)cc(OC)c1OC (stereo not shown) | -9.57 |
| Cc1ccnc(NC(=O)CNC(=O)c2ccc(C)s2)c1 | 3.94 |
| Cc1ccc(NS(=O)(=O)c2coc(C(N)=O)c2)cc1F | 3.11 |
| O=C(c1ccc(S(=O)(=O)N2CCOCC2)cc1)N1CCOCC1 | 12 |
| O=C(CSc1nc2ccccc2c(=O)n1CCC(=O)N1CCN(c2ccccc2)CC1)NCC1CCCO1 (stereo not shown) | -45.6 |
| Cc1nnsc1NC(=O)OCc1ccccc1Cl | 2.2 |
| COC(=O)c1ccc(CSc2nnc3nc(C)cc(C)n23)cc1 | 1.98 |
| COc1ccccc1-c1nc(C#N)c(N2CCc3ccccc3C2)o1 | 2.57 |
| COc1ccc(OC)c(C(=O)NC(CC(N)=O)c2ccc(N3CCC(N4CCCC4)CC3)c([N+](=O)[O-])c2)c1 (stereo not shown) | 5.1 |
| CCOCCn1c(CN2CCN(C)CC2)nc2c1c(=O)n(C)c(=O)n2C | 3.97 |
| CCN(CC)CCN(C(=O)c1c(F)cccc1F)c1nc2cc(C)cc(C)c2s1.Cl | -11.1 |
| N#Cc1c(-c2ccccc2)cc(-c2ccccc2)[nH]c1=O | 22.2 |
| c1ccc(CC(Nc2ccccn2)c2ccccc2)cc1 (stereo not shown) | -52.8 |
| O=C(CCn1nnnc1CN1CCOCC1)N1CCC(c2ccccc2Cl)C1 (stereo not shown) | 0.252 |

| SMILES | hERG current change (%, negative = inhibition) at 10uM [%] |
| --- | --- |
| Cc1cc(C)nc(N2C(=O)CC(C(C)c3ccccc3)C2=O)n1 (stereo not shown) | 18.2 |
| Cc1nn(-c2ccccc2)c(C)c1C(=O)OCC(=O)NC(=O)NC1CCCCC1 | 0.462 |
| CCC1(c2ccccc2)NC(=O)N(CC(=O)Nc2cccc(C#N)c2)C1=O (stereo not shown) | 1.28 |
| O=CN1CCN(C(=O)C(=O)c2cn(CC(=O)N3CCCCC3)c3ccccc23)CC1 | 12 |
| CCOc1ccccc1CN1CCNC(=O)C1CC(=O)N(C)CCc1ccccn1 (stereo not shown) | 14 |
| CC(C)C(=O)NC(=S)Nc1nnn(C)n1 | 11.3 |
| Cc1noc(C)c1C(c1ccccc1)c1ccccc1 | -16.9 |
| O=[N+]([O-])c1ccccc1S(=O)(=O)N1CCN(c2ccccc2)CC1 | -20.1 |
| COc1ccccc1N1CCN(S(=O)(=O)CCNC(=O)CC2CCCCC2)CC1 | -0.45 |
| Cc1ccc(NC(=O)C(c2ccc(Cl)cc2Cl)N2CCCC2)cc1 (stereo not shown) | -2.49 |
| COc1ccc2nc(C)cc(SCC(=O)N3CCCCC3)c2c1 | -19.4 |
| CC(C)C(OC(=O)c1nsc(Cl)c1Cl)C(=O)NCC1CCCO1 (stereo not shown) | 2.88 |
| COc1ccc(NC(=O)Nc2ccccc2F)c([N+](=O)[O-])c1 | 9.62 |
| COc1ccc(NC(=O)CSc2nc(C)cs2)c(OC)c1 | 7.31 |
| O=c1cc(-c2c(F)c(F)c(F)c(F)c2F)oc2c(F)c(F)c(F)c(F)c12 | 1.28 |
| CCc1ccc(N(CC(=O)NCc2cccnc2)S(=O)(=O)c2ccccc2)cc1 | -27 |
| CN(c1ccccc1)S(=O)(=O)c1ccccc1Br | 3.35 |
| CCN(C(C)=O)c1ccc(Oc2nc(OC)cc(OC)n2)cc1 | -13.3 |
| Cc1cccc(N2C(=O)/C(=C\c3ccc(C(=O)O)cc3)c3ccccc3C2=O)c1 | 8.38 |
| CC(=O)N1CCCc2cc(S(=O)(=O)N(C)CCC#N)ccc21 | -0.0813 |
| C=CCn1c(-c2ccccc2)cc(SC)c(C#N)c1=O | 18.1 |
| CC(OC(=O)c1ccc2ncsc2c1)C(=O)Nc1ncc(Cl)cc1Cl (stereo not shown) | 4.5 |

| SMILES | hERG current change (%, negative = inhibition) at 10uM [%] |
| --- | --- |
| C/C(=N\Nc1cc(N2CCCCC2)nc(C)n1)c1ccc(Br)cc1 | -1.08 |
| CCC(C)(C)NC(=O)C(c1ccc(OC)cc1)N(C(=O)CCC(=O)Nc1cc(C)on1)c1ccccc1OC (stereo not shown) | -10 |
| CCCn1nc(NC(=O)c2cccs2)c2cc3cc(C)ccc3nc21 | 13.1 |
| CCCOC(=O)c1ccc(NC(=O)CSC2=Nc3ccccc3C3CC=NN23)cc1 (stereo not shown) | 13.8 |
| COc1cc2ccccc2cc1C(=O)N(CCN(C)C)c1nc2ccc(C)cc2s1.Cl | -11.2 |
| CC(=O)Nc1ccc(NC(=O)COC(=O)c2ccccn2)cc1 | 31.5 |
| COc1ccc(S(=O)(=O)N2CCC(C(=O)N3CCCC3)CC2)cc1C | 13.8 |
| COc1ccc(-c2coc3cc(O)c(OC)cc3c2=O)cc1 | 11.7 |
| Cn1c(SC2CCCCC2=O)nnc1-c1ccncc1 (stereo not shown) | -13.2 |
| CC(=O)Nc1ccc(CN2CCC(Oc3ccc(C(=O)N4CCCC4)cc3)CC2)cc1 | -21.3 |
| O=C(NC1CCN(C(=O)c2cccc([N+](=O)[O-])c2)CC1)c1ccccc1 | -32.8 |
| c1ccc(Cn2c(-c3ccco3)nc3nc4ccccc4nc32)cc1 | 6.13 |
| O=c1[nH]c(CSc2ncnc3sccc23)nc2cc(C(F)(F)F)ccc12 | 7.04 |
| CCC(=O)c1c(CC)c2n3c1CC[C@H]3CCC2 | 1.28 |
| Cc1[nH]c2ccccc2c1C(=O)COC(=O)C(C)C | -6.03 |
| COCCCNC(=O)[C@H](CSCc1ccccc1)N1Cc2ccccc2C1=O | -14.5 |
| CCN1CCCC1CN(Cc1cc2ccc(C)cc2[nH]c1=O)C(=S)Nc1ccc(F)cc1 (stereo not shown) | -78.5 |
| CCSc1nnc(-c2cc3c(s2)-c2ccccc2CC3)o1 | 9.83 |
| COc1ccc(CC2(CO)CCN(S(=O)(=O)c3cccc4cccnc34)CC2)cc1 | -5.13 |
| CSC1=NSC2=NC(=O)/C(=C/c3coc4ccccc4c3=O)C(=N)N12 | 15.6 |
| O=C(Nc1nc(-c2ccccc2)cs1)c1cccc([N+](=O)[O-])c1 | 1.13 |
| CC(O)(C#CCN1CCCCCC1)c1ccccc1 (stereo not shown) | 13.7 |

| SMILES | hERG current change (%, negative = inhibition) at 10uM [%] |
| --- | --- |
| CC(C)(C)c1nnc(NS(=O)(=O)c2ccc([N+](=O)[O-])cc2)s1 | 28.3 |
| O=C(C1=NN[C@@H]2C(=O)N(c3cccc(F)c3)C(=O)[C@H]12)c1ccc2ccccc2n1 | 5.23 |
| Cc1nnc(OCc2nc3ccccc3n2C)c2ccccc12 | -27.4 |
| CCn1ncc(CNC(=O)CCCSc2nc(-c3ccco3)cc(C(F)(F)F)n2)c1C | -41.6 |
| CCN(CC)C(=S)SSC(=S)N(CC)CC | 17.8 |
| Cc1ccc(C)c(NC(=S)NCC(c2cccnc2)N2CCOCC2)c1 (stereo not shown) | -8.03 |
| CC(=O)Nc1ccc(C2Nc3ccccc3C(=O)N2C2CCCCC2)cc1 (stereo not shown) | 12.4 |
| COC(=O)c1sc2ccccc2c1NC(=O)c1ccc(S(=O)(=O)N2CC(C)CC(C)C2)cc1 (stereo not shown) | -6.83 |
| CSc1ccc(C(=O)C2CCCN(C(=O)CCCn3cncn3)C2)cc1 (stereo not shown) | -40.5 |
| CN(c1ccc(C(=O)N2CCOCC2)cc1)S(C)(=O)=O | -4.31 |
| CCOC(=O)CSc1nc2ccccc2c(=O)n1CC | -14.6 |
| CCOC(=O)c1ccc(N2C(=O)CC(N(C)Cc3ccccc3)C2=O)cc1 (stereo not shown) | 20.9 |
| CC(=O)N(c1ccccc1)c1nc(C)cc(C)c1C#N | 12.1 |
| CCN(CCNC(=O)C1CCN(S(=O)(=O)c2cccc3cccnc23)CC1)c1ccccc1 | -41.7 |
| COc1cc2[nH]cc(C(=O)NCc3ccccc3)c(=O)c2cc1OC | 12.8 |
| CC(C)(C)C(=O)OCc1nc(-c2ccc(O)c(O)c2)cs1 | 9.39 |
| CN1C(=O)C(C)(C)c2cc(S(=O)(=O)N3CCN(c4ccc(F)cc4)CC3)ccc21 | -23.3 |
| COc1ccc(NC(=O)c2ccc(-n3cncn3)c([N+](=O)[O-])c2)cc1 | -5.61 |
| Cc1cccc(NC(=O)C2CCN(S(=O)(=O)c3cccs3)CC2)c1 | -10.5 |
| COc1cccc(-c2nn(C)c3sc(C(=O)NCCCN(C)Cc4ccccc4)cc23)c1 | -52.2 |
| O=C(NC(Cc1ccccc1)C(=O)NCCc1ccccn1)c1cccs1 (stereo not shown) | 6.14 |
| CS(=O)(=O)N(CC(=O)Nc1ccc(S(=O)(=O)N2CCOCC2)cc1)c1ccccc1Cl | -11.7 |
